Laboratory results published in PubChem BioAssay AID1745845 (National Center for Advancing Translational Sciences (NCATS), 2022).
Several values for one entry are separate records, joined by “and”; a condition that tells them apart may be missing. Equal entries are not always repeated. About 2,600 (0.72%) of roughly 360,000 compounds were called active. This list was built around the results that the source calls inconclusive (neither active nor inactive); the mix of calls is not that of the screen. Calls come from the whole dose curve; as a rule, active = well fitted inhibition curve with a large enough effect; inconclusive = small, poorly fitted or top-dose-only effect; inactive = no such curve, though single readings can be large or run the other way. Potencies beside an inconclusive call are fits to weak or partial responses and may not hold up. The source holds several records for some structures; these can differ, active in one and inactive in another.

Test: Primary qHTS for Inhibitors of ATXN expression; note: nearly all actives have a fitted effect of over 55% in size
Settings: HEK-293 ATXN2-luciferase reporter, luminescence, 24 h; activity change, negative = inhibition: at 57 µM (top of the series)
Summary of the method: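 ATXN2-luciferase reporter cells (luciferase flanked by upstream and downstream ATXN2 gene portions) were treated 24 h at 37 °C with compounds at up to 57 uM. SteadyGlo luminescence gave expression; GF-AFC fluorescence gave viability.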
% is set by controls: 0 for no effect and ±100 for the full control effect; potency is the fitted concentration of half-maximal effect; tags give direction and shape of the fitted curve.

Potency, active:
CCCCC(CC)CN=C(N)NC(N)=NCCCCCCN=C(N)NC(N)=NCC(CC)CCCC (stereo not given) 8.91 µM and 10 µM
O=C(COc1ccc(Cl)cc1)N/N=C/c1cccc2cccnc12 25.1 µM
COc1cccc2c1C(=O)c1c(O)c3c(c(O)c1C2=O)C[C@@](O)(C(=O)CO)C[C@@H]3O[C@H]1C[C@H](N)[C@H](O[C@@H]2CCCCO2)[C@H](C)O1 0.398 µM
COc1cc([C@@H]2c3cc4c(cc3[C@@H](O[C@@H]3O[C@@H]5CO[C@@H](C)O[C@@H]5[C@H](O)[C@@H]3O)[C@H]3COC(=O)[C@H]23)OCO4)cc(OC)c1O 0.769 µM
COc1cc2c3nnc(-c4ccc(F)cc4)c-3cn(Cc3ccc(C)cc3)c2cc1OC 17.8 µM
CC#C[C@]1(O)CC[C@H]2[C@@H]3CCC4=CC(=O)CCC4=C3[C@@H](c3ccc(N(C)C)cc3)C[C@@]21C 35.5 µM and 15.3 µM

Potency, inconclusive:
Cc1ccc(Cn2c(SCc3ccc(C(=O)NC4CCCC4)cc3)nc3ccncc32)cc1 39.8 µM [inhibitor, single point]
CCc1ccc(-n2c(SCc3cccc(F)c3)nc3[nH]ncc3c2=O)cc1 39.8 µM [inhibitor, single point]
COc1cccc(NC(=O)c2ccc3nc(Cc4ccccc4)oc3c2)c1 1.58 µM [inhibitor, full curve]
Cc1ccc(NC(=O)COC(=O)C2(c3ccc(Cl)cc3)CCCC2)cc1 17.8 µM [inhibitor, partial curve]
Cc1c(C(=O)Nc2ccc(Cl)cc2)c2ccccn2c1C(=O)c1ccc(F)cc1 39.8 µM [inhibitor, single point]
Cc1ccc(C(=O)Nc2cccc(C(F)(F)F)c2)cc1Nc1ncnc2nc[nH]c12 20 µM [inhibitor, partial curve, poor fit]
C[C@@]12C(=O)Nc3ccc(F)cc3C(=O)N1[C@H]1c3cc(Br)ccc3OC[C@@H]1[C@@H]2c1ccccc1 28.2 µM [inhibitor, partial curve]
COc1ccc(C(=O)N2CCN(c3nc4ccccc4o3)CC2)cc1OC 11.9 µM [inhibitor, partial curve]
C[C@H]1CNC(=O)c2c(C(=O)Nc3ccc(CNC(=O)OC(C)(C)C)cc3)ncn21 39.8 µM [inhibitor, single point]
Clc1ccc(Cn2c(-c3cccnc3Cl)nc3ccccc32)cc1 20 µM [inhibitor, single point]
Cc1cc(C)c(NC(=O)c2ccc(CNS(=O)(=O)c3cc(C(F)(F)F)ccc3Cl)cc2)c(C)c1 39.8 µM [inhibitor, partial curve, poor fit]
COc1cc(OC)cc(-c2sc3ccc(OC)cc3c2C#CC2(N)CCCCC2)c1 39.8 µM [inhibitor, single point]
CC(C)CC(NC(=O)OCc1ccccc1)C(=O)NC(Cc1ccccc1)C(=O)CCl (stereo not given) 23.8 µM [inhibitor, partial curve, poor fit]
COc1ccc(C(=O)N/N=C(\C)c2ccccn2)cc1OC 2.82 µM [inhibitor, full curve, poor fit]
CC1=C(CC/C(C)=N/NC(N)=S)C(C)(C)CCC1 10 µM [inhibitor, partial curve, poor fit]
C=Cc1ccc(Cn2c(C)c(C(=O)NCc3ccc(C#N)cc3)sc2=O)cc1 12.6 µM [inhibitor, single point]
COc1cc(NC(=O)c2ccc(-c3c(C)noc3C)c3ccoc23)cc(OC)c1OC 39.8 µM [inhibitor, single point]
CCCCOc1ccc(Cl)cc1CSc1n[nH]c(C)n1 11.2 µM [inhibitor, partial curve, poor fit]
CCc1ccc(/C=C2/SC(=S)N(CCCC(=O)Nc3ccccc3C(=O)O)C2=O)cc1 25.1 µM [inhibitor, partial curve]
CC(=O)Nc1ccn(C2COC(COC(=O)c3ccccc3)O2)c(=O)n1 (stereo not given) 11.2 µM [inhibitor, partial curve, poor fit]
COc1cc(C2C(C(=O)Nc3ccccc3)=C(C)Nc3nnnn32)cc(OC)c1OC (stereo not given) 39.8 µM [inhibitor, single point]
CCCc1nc2ccccc2c(C(=O)OCC(=O)Nc2cccc(S(=O)(=O)N3CCOCC3)c2)c1CC 15.8 µM [inhibitor, partial curve, poor fit]
O=C(Nc1cccc(S(=O)(=O)N2CCCC2)c1)c1ccc(Cl)nc1 11.2 µM [inhibitor, partial curve, poor fit]
Cc1ccc(S(=O)(=O)C(NC(=O)c2ccccc2)=C(Cl)Cl)cc1 39.8 µM [inhibitor, single point]
Cc1ccc(C2/C(=C(\O)c3c(C)nc4ccccn34)C(=O)C(=O)N2CCN(C)C)o1 (stereo not given) 8.44 µM [inhibitor, single point]
CCOC(=O)c1c(CSc2nc(C)cc(C)c2C#N)n(C)c2cc(Br)c(OC(C)=O)cc12 33.6 µM [inhibitor, single point]
CC(C)(C)c1ccc(CC(=O)N2CCC2(C)C(=O)NCc2cccc3ccccc23)cc1 (stereo not given) 39.8 µM [inhibitor, single point]
CCOC(=O)C1CCCCN1C(=O)CCc1c(C)nc2ncnn2c1C (stereo not given) 14.1 µM [inhibitor, partial curve, poor fit]
CN(C)S(=O)(=O)c1cccc(NC(=S)Nc2cc(Cl)cc(Cl)c2)c1 39.8 µM [inhibitor, single point]
COc1ccc(C2CC(=O)N(CC(=O)Nc3ccc(C(C)=O)cc3)c3ccccc3S2)cc1OC (stereo not given) 25.1 µM [inhibitor, single point]
Cc1ccc(C(=O)N(CCCN(C)C)c2nc3ccc(Cl)cc3s2)cc1C 39.8 µM [inhibitor, single point]
O=C(NC1CCCCC1)C(c1ccc2ncccc2c1)N(Cc1ccc2c(c1)OCO2)C(=O)c1cccs1 (stereo not given) 25.1 µM [inhibitor, single point]
Cc1ccc(C(=O)N/C(=C/c2ccc(-c3ccc([N+](=O)[O-])cc3)o2)C(=O)NCCCN(C)C)cc1 39.8 µM [inhibitor, single point]
CC1(C)CC2CC(C)(CN2S(=O)(=O)c2ccc(C(=O)Nc3ccc(S(=O)(=O)N4CCOCC4)cc3)cc2)C1 (stereo not given) 4.74 µM [inhibitor, partial curve, poor fit]
C=C1C(=O)O[C@@]23[C@H]1CC[C@@H](C)[C@@H]2CC[C@@]1(C)O[C@@H]31 14.1 µM [inhibitor, partial curve]
N#Cc1ccc(C23OCCN2CCn2c3c3ccccc3[n+]2[O-])cc1 (stereo not given) 17.8 µM [inhibitor, partial curve, poor fit]

Activity change, negative = inhibition, inconclusive:
N#Cc1ccc(OCC(O)CN2CCN(c3ncc(C(F)(F)F)cc3Cl)CC2)cc1 (stereo not given) -48% [inhibitor]
O=C(Nc1ccc(NC(=O)c2ccccc2F)cn1)c1ccco1 -49.7% [inhibitor]

Activity change, negative = inhibition, inactive:
O=c1oc2ccccc2cc1-c1cn2cc(Cc3ccccc3F)sc2n1 20.2%
Cc1ccccc1C(=O)N/N=C/c1ccc(Sc2ccccn2)o1 -0.776%
CN(C)CCn1c(=O)n(Cc2ccccc2)c(=O)c2c3c(sc21)CCCCC3 -17.1%
O=C(COC(=O)c1ncc(Cl)c(Cl)c1Cl)Nc1ccc(Cl)cn1 -7.13%
CC(=O)Nc1ccc(N2CCCC(C)C2)c([N+](=O)[O-])c1 (stereo not given) 35.4%
CC(C)COC(=O)N(C)C[C@@H]1OCc2cnnn2CCCC(=O)N([C@@H](C)CO)C[C@H]1C 9%
Cc1cc([N+](=O)[O-])nn1CCCC(=O)Nc1cc(Oc2ccccc2)cc([N+](=O)[O-])c1 -9.79%
COc1ccc(NC(=O)c2ccc(NC(=O)c3ccco3)cc2)c(OC)c1 -18.2%
OC(c1ccc(F)cc1)c1nc(-c2ccccc2)cs1 (stereo not given) 50.7%
CCCc1[nH]nc2c1C(c1ccc(OC)c(Cn3nnc4ccccc43)c1)C(C#N)=C(N)O2 (stereo not given) -10.2%
COc1ccc(C(C)=O)cc1CSc1ccc(S(=O)(=O)N2CCCCC2)cn1 -10.8%
CN1c2ccccc2C(C)(C)C12CC(c1cccc(S(=O)(=O)N3CCCC3)c1)=NO2 (stereo not given) 98.8%
CCSC1=C(C#N)C(c2ccc(Cl)cc2)C2=C(CCCC2=O)N1 (stereo not given) -19.6%
c1ccc(-c2nc3c4ccccc4ccn3c2Cc2ccsc2)cc1 54%
O=C1CSC(=S)N1Cc1cccs1 -12.9%
O=C(CN(Cc1ccccc1F)C(=O)Cn1nnc(-c2cccs2)n1)NCC1CCCO1 (stereo not given) 2.26%
Cc1cccc(-c2noc(-c3c(C)noc3C)n2)c1 22.2%
O=C(COC(=O)CC1CCCC1)Nc1ccc(Cl)cn1 0.555%
O=C(O)CN1C(=O)COc2ccc(S(=O)(=O)N3CCCCCC3)cc21 14.3%
CCOC(=O)c1c(C)oc2nc(C)nc(N3CCN(c4cccc(C(F)(F)F)c4)CC3)c12 -17.8%
O=C(NCCc1ccccc1)c1c[nH]c2c(F)cccc2c1=O 42.2%
